# Test results as given in patent publication US12312356B2, “Anthelmintic heterocyclic compounds” (Boehringer Ingelheim Vetmedica GmbH, priority 2020, dated 2025).
# Test system: L1 Haemonchus contortus larvae
# Assay: Screening method to test activity against Haemonchus contortus (larval development L1 to L3, dose response)
# Conditions: 96 h, read-out: EC50 value (development of the larvae from L1 to L3)
# Excerpt: Screening Method to Test Activity of Compounds Against Haemonchus contortus
row,Structure (SMILES),EC50 [nM]
1,"O=C(N[C@H]1CCOc2ccccc21)c1cnn2c(-c3c(F)cccc3F)cnc2c1 [Compound 174, 3-(2,6-difluorophenyl)-N-[(4S)-3,4-dihydro-2H-1-benzopyran-4-yl]imidazo[1,2-b]pyridazine-7-carboxamide]",1000 to 10000
2,"Cc1nc2c(C(C)C)c(C(=O)N[C@H]3CCOc4ccccc43)cnn2c1-c1cc(F)cc(F)c1 [Compound 175, 3-(3,5-difluorophenyl)-N-[(4S)-3,4-dihydro-2H-1-benzopyran-4-yl]-8-isopropyl-2-methylimidazo[1,2-b]pyridazine-7-carboxamide]",10 to 100
3,"Cc1nc2c(C(C)C)c(C(=O)N[C@H]3CCOc4ccccc43)cnn2c1-c1cc(Cl)cc(Cl)c1 [Compound 271, 3-(3,5-dichlorophenyl)-N-[(4S)-3,4-dihydro-2H-1-benzopyran-4-yl]-8-isopropyl-2-methylimidazo[1,2-b]pyridazine-7-carboxamide]",< 10
4,"Cc1nc2c(C(C)(C)F)c(C(=O)N[C@H]3CCOc4ccccc43)cnn2c1-c1cc(F)cc(F)c1 [Compound 277, 3-(3,5-difluorophenyl)-N-[(4S)-3,4-dihydro-2H-1-benzopyran-4-yl]-8-(2-fluoropropan-2-yl)-2-methylimidazo[1,2-b]pyridazine-7-carboxamide]",10 to 100
5,"C=C(C)c1c(C(=O)N[C@H]2CCOc3ccccc32)cnn2c(-c3cc(F)cc(F)c3)c(C)nc12 [Compound 279, 3-(3,5-difluorophenyl)-N-[(4S)-3,4-dihydro-2H-1-benzopyran-4-yl]-2-methyl-8-(prop-1-en-2-yl)imidazo[1,2-b]pyridazine-7-carboxamide]",100 to 1000
6,"CC(C)c1c(C(=O)N[C@H]2CCOc3ccc(F)cc32)cnn2c(Cl)c(-c3cc(Cl)cc(Cl)c3)nc12 [Compound 304-0, 3-chloro-2-(3,5-dichlorophenyl)-N-[(4S)-6-fluoro-3,4-dihydro-2H-1-benzopyran-4-yl]-8-isopropylimidazo[1,2-b]pyridazine-7-carboxamide]",1000 to 10000
7,"Cc1nc2c(C(C)(C)C)c(C(=O)N[C@H]3CCOc4ccccc43)cnn2c1-c1cc(Cl)cc(Cl)c1 [Compound 306, 8-tert-butyl-3-(3,5-dichlorophenyl)-N-[(4S)-3,4-dihydro-2H-1-benzopyran-4-yl]-2-methylimidazo[1,2-b]pyridazine-7-carboxamide]",< 10
8,"Cc1nc2c(C(C)C)c(NC(=O)[C@H]3CCOc4ccccc43)cnn2c1-c1cc(F)cc(F)c1 [Compound 320, (4S)—N-[3-(3,5-difluorophenyl)-8-isopropyl-2-methylimidazo[1,2-b]pyridazin-7-yl]-3,4-dihydro-2H-1-benzopyran-4-carboxamide]",100 to 1000
9,"Cc1nc2c(C(C)C)c(NC(=O)[C@@H]3CCOc4ccccc43)cnn2c1-c1cc(F)cc(F)c1 [Compound 320-0, (4R)—N-[3-(3,5-difluorophenyl)-8-isopropyl-2-methylimidazo[1,2-b]pyridazin-7-yl]-3,4-dihydro-2H-1-benzopyran-4-carboxamide]",1000 to 10000
10,"Cc1nc2c(C(C)C)c(C(=O)N[C@H]3CCOc4ccccc43)cnn2c1C(C)(C)C [Compound 323, 3-tert-butyl-N-[(4S)-3,4-dihydro-2H-1-benzopyran-4-yl]-8-isopropyl-2-methylimidazo[1,2-b]pyridazine-7-carboxamide]",1000 to 10000
11,"Cc1nc2c(C(C)C)c(C(=O)N[C@H]3CCOc4ccccc43)cnn2c1CC(C)C [Compound 323-0, N-[(4S)-3,4-dihydro-2H-1-benzopyran-4-yl]-2-methyl-3-(2-methylpropyl)-8-(propan-2-yl)imidazo[1,2-b]pyridazine-7-carboxamide]",1000 to 10000
12,"Cc1nc2c(C(C)C)c(C(=O)N[C@H]3CCOc4ccccc43)cnn2c1N1CCCCC1 [Compound 324, N-[(4S)-3,4-dihydro-2H-1-benzopyran-4-yl]-8-isopropyl-2-methyl-3-(piperidin-1-yl)imidazo[1,2-b]pyridazine-7-carboxamide]",100 to 1000
13,"Cc1nc2c(C(C)C)c(C(=O)N[C@H]3CCOc4ccccc43)cnn2c1[C@H]1CC[C@H](C(F)(F)F)CC1 [Compound 326, N-[(4S)-3,4-dihydro-2H-1-benzopyran-4-yl]-8-isopropyl-2-methyl-3-[(1r,4r)-4-(trifluoromethyl)cyclohexyl]imidazo[1,2-b]pyridazine-7-carboxamide]",1000 to 10000
14,"Cc1nc2c(C(C)C)c(C(=O)N[C@H]3CCOc4ccccc43)cnn2c1[C@H]1CC[C@@H](C(F)(F)F)CC1 [Compound 326-0, N—((S)-chroman-4-yl)-8-isopropyl-2-methyl-3-((1s,4R)-4-(trifluoromethyl)cyclohexyl)imidazo[1,2-b]pyridazine-7-carboxamide]",10 to 100
15,"Cc1nc2c(C(C)C)c(C(=O)N[C@H]3CCOc4ccccc43)cnn2c1C1=CCC(C(F)(F)F)CC1 (stereo partly drawn) [Compound 327, N-[(4S)-3,4-dihydro-2H-1-benzopyran-4-yl]-8-isopropyl-2-methyl-3-[4-(trifluoromethyl)cyclohex-1-en-1-yl]imidazo[1,2-b]pyridazine-7-carboxamide]",100 to 1000
16,"CC(C)c1c(C(=O)N[C@H]2CCOc3ccccc32)cnn2c(-c3cc(Cl)cc(Cl)c3)cnc12 [Compound 352, 3-(3,5-dichlorophenyl)-N-[(4S)-3,4-dihydro-2H-1-benzopyran-4-yl]-8-isopropylimidazo[1,2-b]pyridazine-7-carboxamide]",100 to 1000
17,"Cc1nc2c(C(C)C)c(C(=O)N[C@H]3CCOc4ccccc43)cnn2c1C#N [Compound 366, 3-cyano-N-[(4S)-3,4-dihydro-2H-1-benzopyran-4-yl]-8-isopropyl-2-methylimidazo[1,2-b]pyridazine-7-carboxamide]",1000 to 10000
18,"COc1c(C(=O)N[C@H]2CCOc3ccccc32)cnn2c(-c3cc(Cl)cc(Cl)c3)cnc12 [Compound 394, 3-(3,5-dichlorophenyl)-N-[(4S)-3,4-dihydro-2H-1-benzopyran-4-yl]-8-methoxyimidazo[1,2-b]pyridazine-7-carboxamide]",1000 to 10000
